Test results from the supplement of paper PMC6206098.
± gives the uncertainty stated by the source. Shown are siRNA guide strands that differ only in the seed, positions 2 to 7.

Legend:
[1] = tested on: 3LL; assay: cell viability relative to siNT1 control; higher = less toxic; settings: concentration: 10 nM; 96 h; Mus musculus;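 further: Luminescence-based viability of cells reverse transfected in 384-well plates with lipid-complexed siRNAs built on a non-toxic 19mer backbone whose passenger strand carries 2′-O-methyl groups at positions 1 and 2, triplicates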
[2] = tested on: H460; assay: cell viability relative to lipid-only control; HeyA8 human ovarian and H460 human lung cancer; M565 mouse liver and 3LL mouse lung cancer; siNT1 is a non-toxic control siRNA; higher = less toxic; settings: concentration: 10 nM; 96 h; Homo sapiens
Protocol: (§1)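 Arrayed screen of 4096 siRNA duplexes, each carrying one of all possible 6mer seeds at guide-strand positions 2-7 in a fixed neutral 19mer scaffold (constant flanks: U at position 1, then ACAUGUAAACCA, plus a 3' AA overhang). The passenger strand is 2'-O-methylated at positions 1-2 so only the guide strand loads into RISC. Duplexes were reverse-transfected at 10 nM with RNAiMAX in triplicate in 384-well plates; viability was read by CellTiter-Glo ATP content 96 h after transfection. Values are % viability normalised to lipid-only wells (HeyA8, H460, M565) or to siNT1 (3LL).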

[3] = tested on: M565; assay: as above; settings: concentration: 10 nM; 96 h; Mus musculus
Protocol: as §1

[4] = tested on: HeyA8; assay: as above; settings: concentration: 10 nM; 96 h; Homo sapiens
Protocol: as §1
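Wherever cell viability relative to lipid-only control is given: reverse lipid transfection in 384-well plates, in triplicate, of duplexes on a non-toxic 19mer backbone with passenger strand 2′-O-methylated at positions 1 and 2, luminescence viability read-out.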

Sequence	cell viability [1] [%]	cell viability [2] [%]	cell viability [3] [%]	cell viability [4] [%]
UCCAAUAACAUGUAAACCAAA	98.1 ± 31	84.5 ± 7.2	68.1 ± 15	82.6 ± 5.2
UCCAAUCACAUGUAAACCAAA	37.1 ± 6.4	65.7 ± 4.3	58 ± 10	43.4 ± 0.76
UCCAAUGACAUGUAAACCAAA	97.7 ± 30	60.1 ± 4.3	47.1 ± 11	66.4 ± 7.7
UCCAAUUACAUGUAAACCAAA	109 ± 32	76.4 ± 12	65.8 ± 4.1	74.5 ± 6.9
UCCACAAACAUGUAAACCAAA	101 ± 28	47.8 ± 4.9	66.2 ± 18	82.9 ± 6
UCCACACACAUGUAAACCAAA	76.7 ± 22	50.7 ± 11	25.3 ± 11	63.8 ± 6.9
UCCACAGACAUGUAAACCAAA	96.7 ± 26	45.3 ± 3.9	54.4 ± 12	79.6 ± 2.5
UCCACAUACAUGUAAACCAAA	105 ± 17	65.5 ± 6	80 ± 28	80.2 ± 9.3
UCCACCAACAUGUAAACCAAA	102 ± 11	55.8 ± 6.3	50.7 ± 15	79.9 ± 7.8
UCCACCCACAUGUAAACCAAA	56.7 ± 15	39.1 ± 6.8	44.5 ± 9.5	35.3 ± 7.1
UCCACCGACAUGUAAACCAAA	110 ± 18	54.6 ± 7.2	66.8 ± 15	70.1 ± 8.3
UCCACCUACAUGUAAACCAAA	105 ± 13	46 ± 8.2	42.3 ± 17	49.6 ± 9.6
UCCACGAACAUGUAAACCAAA	103 ± 23	54.6 ± 7.1	58.9 ± 4.2	84.7 ± 2.5
UCCACGCACAUGUAAACCAAA	65.9 ± 20	56 ± 3.8	21.3 ± 3.6	75.6 ± 7.3
UCCACGGACAUGUAAACCAAA	90.8 ± 28	51.7 ± 8.8	36.1 ± 7	63.4 ± 4.8
UCCACGUACAUGUAAACCAAA	48.7 ± 7.6	93.6 ± 16	27.9 ± 6.8	60.3 ± 1.7
UCCACUAACAUGUAAACCAAA	101 ± 34	64.6 ± 13	76.8 ± 7.3	84.7 ± 5
UCCACUCACAUGUAAACCAAA	86.7 ± 18	57.2 ± 5.7	65.3 ± 9.2	78.5 ± 11
UCCACUGACAUGUAAACCAAA	108 ± 27	70.1 ± 12	68.6 ± 17	92.7 ± 5.1
UCCACUUACAUGUAAACCAAA	104 ± 28	61.5 ± 3.8	62 ± 23	75.1 ± 9.2
UCCAGAAACAUGUAAACCAAA	104 ± 13	65.5 ± 8.5	67.3 ± 15	81.5 ± 3.9
UCCAGACACAUGUAAACCAAA	60.2 ± 9.7	40.6 ± 4.2	37.3 ± 8.5	47.5 ± 5.9
UCCAGAGACAUGUAAACCAAA	103 ± 16	74.5 ± 14	41.5 ± 8.1	61.2 ± 2.4
UCCAGCAACAUGUAAACCAAA	103 ± 13	71.9 ± 10	90.9 ± 28	92 ± 12
UCCAGCCACAUGUAAACCAAA	17.4 ± 3.5	16.3 ± 2.4	6.65 ± 1.9	11.5 ± 0.81
UCCAGCGACAUGUAAACCAAA	98.8 ± 26	68.1 ± 12	65.2 ± 12	78.2 ± 6.3
UCCAGCUACAUGUAAACCAAA	34.4 ± 5.4	60.6 ± 14	34.3 ± 13	65.2 ± 6.4
UCCAGGAACAUGUAAACCAAA	92.9 ± 24	63.4 ± 8.6	33.4 ± 6	85.1 ± 12
